Experimental data published in publication PMC4336329 (PLoS ONE, 2015).
Among all 310,000 compounds or so, about 14,000 (4.5%) showed an effect of 50% or more. Effects have a minus sign here. The list shows a part of the results.

These compounds were tested against human ether-à-go-go-related gene (hERG) potassium channel (human, UniProt Q12809) (assay: primary screen, population patch clamp on CHO cells stably expressing hERG).
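Note: peak tail current of the secondary pulse compared with the same well before compound.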

human ether-à-go-go-related gene (hERG) potassium channel, sequence (Q12809 whole entry, looked up): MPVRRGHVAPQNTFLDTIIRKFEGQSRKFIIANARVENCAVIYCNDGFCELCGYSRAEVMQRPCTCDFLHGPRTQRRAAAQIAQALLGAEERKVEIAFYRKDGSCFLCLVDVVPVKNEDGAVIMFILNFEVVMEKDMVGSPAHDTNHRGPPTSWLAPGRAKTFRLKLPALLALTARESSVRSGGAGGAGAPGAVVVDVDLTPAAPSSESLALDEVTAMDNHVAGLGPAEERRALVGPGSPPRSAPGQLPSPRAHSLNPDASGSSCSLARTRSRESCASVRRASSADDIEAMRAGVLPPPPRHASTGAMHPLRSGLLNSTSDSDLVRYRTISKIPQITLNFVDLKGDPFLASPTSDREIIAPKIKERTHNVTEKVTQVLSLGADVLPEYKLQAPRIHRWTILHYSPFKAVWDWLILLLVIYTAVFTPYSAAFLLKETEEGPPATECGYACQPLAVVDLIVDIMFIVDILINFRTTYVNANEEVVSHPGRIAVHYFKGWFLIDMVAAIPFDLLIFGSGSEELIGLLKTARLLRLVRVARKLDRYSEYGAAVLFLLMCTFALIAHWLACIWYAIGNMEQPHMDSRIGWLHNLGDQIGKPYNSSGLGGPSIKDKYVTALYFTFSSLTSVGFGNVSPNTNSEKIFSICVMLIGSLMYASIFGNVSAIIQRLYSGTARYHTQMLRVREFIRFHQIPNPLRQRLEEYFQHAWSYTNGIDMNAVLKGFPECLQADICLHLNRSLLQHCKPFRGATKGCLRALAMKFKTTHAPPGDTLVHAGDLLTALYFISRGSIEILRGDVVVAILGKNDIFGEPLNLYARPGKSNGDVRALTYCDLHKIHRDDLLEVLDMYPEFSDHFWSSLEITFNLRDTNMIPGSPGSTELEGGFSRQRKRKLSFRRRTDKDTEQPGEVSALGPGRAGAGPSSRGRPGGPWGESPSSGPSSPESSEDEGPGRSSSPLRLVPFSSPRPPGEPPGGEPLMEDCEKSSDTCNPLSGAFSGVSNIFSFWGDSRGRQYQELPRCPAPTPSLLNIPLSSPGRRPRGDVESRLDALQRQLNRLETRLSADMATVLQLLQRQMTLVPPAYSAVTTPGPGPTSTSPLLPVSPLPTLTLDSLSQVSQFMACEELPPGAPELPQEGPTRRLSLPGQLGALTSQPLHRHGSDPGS

Compound | hERG current change (%, negative = inhibition) at 10uM [%]
COc1cc(/C=C/C(=O)c2ccccc2O)cc(OC)c1OC | 5.27
CCN(Cc1ccccc1)S(=O)(=O)CCNC(=O)c1ccc(OC)cc1 | 5.23
Cc1ccc(NS(=O)(=O)c2ccc(Cl)c(C(=O)Nc3ccccc3-c3nc4ccccc4[nH]3)c2)cc1C | 17.2
NC(=O)c1ccc[n+](Cc2ccccc2)c1.[I-] | 1.43
N#Cc1cccc(CSc2ncnc(N)n2)c1 | 12.4
O=C(CC1SCCNC1=O)Nc1ccccc1Cl (stereo not shown) | 21.2
N=C1C(c2nc3ccccc3s2)=C(O)CN1Cc1ccco1 | 1.81
COc1ccc(/C=C/C(=O)c2c(O)cc(C)oc2=O)c(OC)c1 | 0.141
Cc1nc(SCC(=O)NCc2ccc3c(c2)OCO3)c(C#N)c2c1CCCC2 | -11.5
CC(=O)Nc1scc(-c2ccccc2)[n+]1-c1ccc(C)cc1.[Br-] | 1.06
Cc1ccc(S(=O)(=O)c2c(C)nn(C(C)(C)C)c2OC(=O)C(C)C)cc1 | 0.648
CCCCCCNC(=O)c1c(O)c2ccccc2[nH]c1=O | 19.9
COCCC(=O)N1CCC(Oc2ccc(C(=O)N(C)Cc3cc(C)no3)cc2)CC1 | -0.507
O=C(N/N=C/c1ccccc1C(=O)O)c1ccc(COc2cccc3cccnc23)cc1 | 4.17
NC(=O)c1ccc([N+](=O)[O-])cc1SCc1ccccc1 | -5.14
COc1cc(C(=O)NCC2(c3ccccc3)CCCC2)cc(OC)c1OC | -1.94
CCCCOc1ccc(C(C)NC(=O)CCS(=O)(=O)Cc2ccccc2F)cc1 (stereo not shown) | 6.59
Cc1ccc(-n2nc3c(=O)n(CC(=O)NCc4ccccn4)nc(C)c3c2C)cc1 | -20.6
Cc1cc(C)cc(NC(=S)NCCN(C2CCCCC2)C2CCCC2)c1 | -69.6
CC(C)CN(C1CCS(=O)(=O)C1)S(=O)(=O)c1ccc(C(C)C)cc1 (stereo not shown) | -6.74
O=C(c1cc(-c2ccc(Br)cc2)on1)N1CCCCCC1 | 8.66
Cc1nc(-c2cccc(NC(=O)Cc3ccccc3)c2)cs1 | -9.89

Compound | hERG current change (%, negative = inhibition) at 10uM [%]
S=C(NCCc1ccccc1)Nc1nccs1 | 6.05
Nc1ccc(CC2SC(=O)NC2=O)cc1 (stereo not shown) | 13.2
COC(=O)C1=C(c2cccc(C#N)c2)C[C@@H]2CC[C@H]1N2C(=O)NCc1ccc(F)cc1 | -26.6
CC[N+](CC)(CC)CCCCOc1ccc2c(c1)C(=O)c1cc(OCCCC[N+](CC)(CC)CC)ccc1-2.[I-] | 23
COc1ccc(OC)c(NC(=O)c2ccc(NC3=NC4CS(=O)(=O)CC4S3)cc2)c1 (stereo not shown) | -5.04
CCOC(=O)N1CCC(Nc2cc(C)nc3c(-c4ccccc4OC)c(C)nn23)CC1 | -19.2
COCCNC(=S)N(CCCN(C)C)Cc1cc2cc3c(cc2[nH]c1=O)OCCO3 | 24.9
Cl.O=[N+]([O-])c1cccnc1N1CCN(Cc2ccc3c(c2)OCO3)CC1 | -33.2
Cc1ccc(NC(=O)c2cc(NC(=O)c3ccco3)ccc2N2CCOCC2)cc1 | 7.7
CC(=O)NCCOC(=O)Nc1sc(=S)n(C)c1C | 5.72
COc1ccc(CNC(=O)C(=O)NCc2ccncc2)cc1 | 10.9
CCCc1[nH]nc2c1C(C1CCCCC1)C(C#N)=C(N)O2 (stereo not shown) | 3.03
O=C(CN1C(=O)NC2(CCCCCC2)C1=O)Nc1ccc(Br)cc1Br | -21
O=c1c2ccccc2nc(SCc2cccc(F)c2)n1Cc1ccco1 | 2.21
OCC[C@H]1C[C@H](O)[C@@H](O)[C@]2(OCCc3ccccc32)O1 | 2.59
O=c1c(Cc2ccc(Cl)cc2)c(O)ccn1Cc1ccccc1 | 1.16
CCC(O)C1CCN(Cc2cn(Cc3ccccc3)nc2-c2cc3ccccc3o2)CC1 (stereo not shown) | -65.1
CC(C)Cc1ccc(CN2CCCC(NC(=O)c3cnc4ccccn4c3=O)C2)cc1 (stereo not shown) | -71.8
O=C(NC(CC(=O)N1CCN(c2ccc([N+](=O)[O-])cc2)CC1)c1ccccc1)c1ccccc1Cl (stereo not shown) | -85.3
O=C(O)C1=C[C@@H](c2csc3ccccc23)C[C@@H](OCc2ccc(CO)cc2)O1 | -1.15
O=C(NNC(=O)C1CCN(c2ncccn2)CC1)c1ccc(F)cc1 | 14.7
COc1ccc(C2C(C(=O)NCc3cccnc3)c3ccccc3C(=O)N2C)cc1OC (stereo not shown) | 9.28

Compound | hERG current change (%, negative = inhibition) at 10uM [%]
O=C(NC1CCCCC1)C(c1ccc(F)cc1)N(CCCN1CCOCC1)C(=O)c1ccc(CN2CCOCC2)o1 (stereo not shown) | 10.6
O=C(O)c1ccc(S(=O)(=O)NCc2cccnc2)cc1 | 14
c1ccc(-c2cc3c(N4CCCCC4)ncnc3s2)cc1 | 15.9
CCC(CO)Nc1nc(CN2CCCCC2)nc2scc(-c3ccccc3)c12 (stereo not shown) | -68.2
COc1ccccc1CC(=O)NCCc1ccccc1 | 12.1
COc1ccc(CSc2nnc(C)n2N)cc1 | 1.59
CCn1ccnc1CN1CCCC(C(=O)c2cc(F)ccc2OC)C1 (stereo not shown) | -33
O=c1[nH]c(=O)n(Cc2ccc(F)cc2)c(O)c1C=NCCN1CCCCC1 | -17.2
Cc1cc(NC(=O)CSc2nc(=O)n(CCN(C)C)c3c2CCCC3)no1 | -6.91
O=[N+]([O-])c1ccc(S(=O)(=O)N(CC(O)CN2CCCCC2)c2ccccc2)cc1 (stereo not shown) | -80.9
Cc1cc(C)cc(C(=O)Nc2cccnc2Cl)c1 | -5.12
COc1ccc(NC(=O)CC(NCc2ccccn2)C(=O)O)cc1 (stereo not shown) | 15.5
Cc1cc(C(=O)NC2CC(C)(C)Cc3c2cnn3-c2cccc(F)c2)n(C)n1 (stereo not shown) | -32.6
CCc1ccc(N2C(=O)C3CCCN3C2=S)cc1 (stereo not shown) | 0.601
CC(C)c1ccc(NC(=S)N2CCCC2)cc1 | -0.836
CCC(=O)c1ccc(OCC(=O)OCC(=O)NCC2CCCO2)cc1 (stereo not shown) | 16.4
CCc1cccc(NC(=S)N(CCN(C)C)C(C)c2ccncc2)c1 (stereo not shown) | -44
Cn1c(Cc2c[nH]c3ccccc23)n[nH]c1=S | 9.86
O=C(COC(=O)CCNS(=O)(=O)c1ccc(Cl)cc1)NCc1ccco1 | -19.1
CC(C)NC1=C(Cl)C(=O)c2ccccc2C1=O | 4.34
CC(=O)Nc1cccc(NC(=O)C2CCCN2C(=O)Nc2cccc(C)c2)c1 (stereo not shown) | 7.98
CCS(=O)(=O)N1CCCC(C(=O)NCc2ccc3c(c2)OCO3)C1 (stereo not shown) | -6.28

Compound | hERG current change (%, negative = inhibition) at 10uM [%]
CN(C)c1nc(N)nc(N(c2ccccc2)c2ccccc2)n1 | -8.13
O=C(Cc1ccsc1)NCC(=O)Nc1ccc(F)c(F)c1 | -4.33
Cc1ccc(C2Nc3ccc4ccccc4c3C3=C2C(=O)CC(C)(C)C3)o1 (stereo not shown) | 2.46
Cc1cc2cc(CN(Cc3ccco3)C(=O)C3CCCCC3)c(=O)[nH]c2cc1C | -18.1
CCOc1ccc(Cl)cc1S(=O)(=O)N1CCC(C(=O)N2CCCC2)CC1 | -2.33
CNC(=O)c1ccsc1NC(=O)CCS(=O)(=O)c1ccc(Cl)cc1 | -18.1
CN(C)/C=C1/Sc2ccccc2C1=O | 2.59
Cc1ccc2sc(N(CCCN(C)C)C(=O)CCS(=O)(=O)c3ccccc3)nc2c1C | -6.04
CCc1ccc(NC(=O)C(=O)NCCOc2ccccc2Cl)cc1 | 8.26
CC(=O)c1ccc(N2CCN(C(=O)c3cccs3)CC2)c(F)c1 | -28.3
O=C(CCn1c(=O)c2sccc2n(CC(=O)NCc2ccco2)c1=O)NCc1ccccc1 | 9.62
N/C(=N\NC(=O)Nc1ccccc1)c1ccccn1 | -4.74
O=C(Nc1ccc(Cl)c(C(F)(F)F)c1)[C@@H]1CC=C[C@@H]2CCN(Cc3ccc(Cl)c(Cl)c3)C(=O)[C@@H]21 | 23.4
Cc1ccc(-n2c(SCC(=O)N/N=C/C=C/c3ccccc3[N+](=O)[O-])nc3ccccc3c2=O)cc1 | 4.57
Cc1ccc2c(c1Br)/C(=N/N1C(=O)c3ccccc3C1=O)C(=O)N2 | 19.8
Cc1ccc(C(=O)C(C)OC(=O)c2nc(Cl)ccc2Cl)cc1 (stereo not shown) | 8.71
O=C(O)c1cccc(NC(=O)c2cc(-c3cccc(Cl)c3)nc3ccccc23)c1 | 27.3
COc1ccccc1N=Nc1c(C)n[nH]c1C | 15.7
Cc1ccc(N(C)C(=O)c2ccc3c(Cl)c4c(nc3c2)CCC4)cc1C | 1.04
COC(=O)CN1C(=O)C(O)(CC(=O)c2ccc(Br)cc2)c2ccccc21 (stereo not shown) | -8.19
COC(=O)C1=C(N)OC2=C(C(=O)CC(C)(C)C2)C1c1cccnc1 (stereo not shown) | -1.7
Cc1cc(C)n2c(nc3ccccc32)c1C(=O)NCc1ccccc1 | 15.9
